# Reference: paper PMC9911399, “Two distinct binding modes provide the RNA-binding protein RbFox with extraordinary sequence specificity”
# Substitutions are numbered along the chain they refer to; changes in the protein carry UniProt numbers. The list shows a part of the results.
# T1: RBFOX1 RRM RbFoxmut (Fox-RRM*) (Homo sapiens, UniProt Q9NWB1 109-208, R118D;E147R;N151S;E152T)
# T1 sequence: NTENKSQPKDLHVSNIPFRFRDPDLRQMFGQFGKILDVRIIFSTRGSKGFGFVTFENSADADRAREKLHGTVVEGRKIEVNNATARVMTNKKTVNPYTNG
# B1: UGUUAGA (DNA:RNA)
# RNA: GGGAGACCGGAAUUCAGAUUGUCCUGUUAGAUUAAAUCCCGUCGUAGCCACCA
# DNA 1: CAATCTGAATTCCGGTCTCCC
# DNA 2: TGGTGGCTACGACGGGATT
# B2: CUGCGAG (DNA:RNA)
# RNA: GGGAGACCGGAAUUCAGAUUGUCCCUGCGAGUUAAAUCCCGUCGUAGCCACCA
# DNA 1: CAATCTGAATTCCGGTCTCCC
# DNA 2: TGGTGGCTACGACGGGATT
# B3: GCCAGCG (DNA:RNA)
# RNA: B2 RNA with C25G, U26C, G27C, C28A, A30C
# DNA 1: CAATCTGAATTCCGGTCTCCC
# DNA 2: TGGTGGCTACGACGGGATT
# B4: UGCCGGU (DNA:RNA)
# RNA: B1 RNA with U27C, U28C, A29G, A31U
# DNA 1: CAATCTGAATTCCGGTCTCCC
# DNA 2: TGGTGGCTACGACGGGATT
# B5: AUAGGGC (DNA:RNA)
# RNA: B2 RNA with C25A, G27A, C28G, A30G, G31C
# DNA 1: CAATCTGAATTCCGGTCTCCC
# DNA 2: TGGTGGCTACGACGGGATT
# B6: GUCGCAA (DNA:RNA)
# RNA: B2 RNA with C25G, G27C, C28G, G29C, G31A
# DNA 1: CAATCTGAATTCCGGTCTCCC
# DNA 2: TGGTGGCTACGACGGGATT
# B7: AGUAACA (DNA:RNA)
# RNA: B1 RNA with U25A, U28A, G30C
# DNA 1: CAATCTGAATTCCGGTCTCCC
# DNA 2: TGGTGGCTACGACGGGATT
# B8: GUCGGGC (DNA:RNA)
# RNA: B2 RNA with C25G, G27C, C28G, A30G, G31C
# DNA 1: CAATCTGAATTCCGGTCTCCC
# DNA 2: TGGTGGCTACGACGGGATT
# B9: CUUGACG (DNA:RNA)
# RNA: B2 RNA with G27U, C28G, G29A, A30C
# DNA 1: CAATCTGAATTCCGGTCTCCC
# DNA 2: TGGTGGCTACGACGGGATT
# Target: T1, RBFOX1 RRM RbFoxmut (Fox-RRM*)
# Assay: EMSA; HiTS-Eq, 1 nM pool, 10 min; buffer printed only for the single-RNA assays: 10 mM Tris pH 7.5, 150 mM NaCl, 3.4 mM EDTA, 0.001% NP-40, 30 C
# Conditions: tags: His6 N-terminal (pET28a); label: 5' 32P
# Method in brief: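 Purified wild-type or mutant RbFox RRM at increasing concentrations was equilibrated with 1 nM of 5′-radiolabelled RNA carrying 7 randomized nucleotides for 10 min in 50 µL. Unbound RNA was separated by 8% native PAGE and sequenced. Relative association constants came from read-count changes of each RNA species compared with the control reaction, normalised to the cognate motif.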
row,Binder,binding signal
1,B1,0.118 KA relative to UGCAUGU
2,B2,0.134 KA relative to UGCAUGU
3,B3,0.123 KA relative to UGCAUGU
4,B4,0.0872 KA relative to UGCAUGU
5,B5,0.0911 KA relative to UGCAUGU
6,B6,0.0857 KA relative to UGCAUGU
7,B7,0.106 KA relative to UGCAUGU
8,B8,0.0929 KA relative to UGCAUGU
9,B9,0.107 KA relative to UGCAUGU
